From PubChem BioAssay AID1159614 (National Center for Advancing Translational Sciences (NCATS), 2016)
The campaign covered roughly 45,000 compounds. About 65 (0.1%) were called active. Calls follow the shape of the dose curve; as a rule, active = well fitted activation curve with a large enough effect; inconclusive = small, poorly fitted or top-dose-only effect; inactive = no such curve, though single readings can be large or run the other way. The list shows a part of the results. Square brackets hold non-standard residues; d marks the D form. Peptide text beside a SMILES is read from it. pGlu = O=C1CC[C@@H](C(=O)O)N1

target: Galactocerebrosidase (Homo sapiens) (UniProt P54803); experiment: A Novel Cell-Based Assay to Identify Small Molecules for B -Galactocerebrosidase; details: 145M-Twi-hGALC-G270D cells (Twitcher mouse brain line with human GALC G270D), HMU-beta-Gal fluorescence, 48 h; series mostly up to 57.5 µM; activation: at the top concentration; also: 0% is about no effect; nearly all actives have a fitted effect of over 65% in size
Outline: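 Live 145M-Twi cells (Twitcher mouse brain-derived, GALC-null) stably expressing human GALC-G270D, with a wild-type GALC line, were compound-treated. Residual GALC activity was then read as fluorescence from 0.1 mM final HMU-β-gal at pH 5.2; higher signal means activation.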

Chain of UniProt P54803 (P54803 whole entry, looked up): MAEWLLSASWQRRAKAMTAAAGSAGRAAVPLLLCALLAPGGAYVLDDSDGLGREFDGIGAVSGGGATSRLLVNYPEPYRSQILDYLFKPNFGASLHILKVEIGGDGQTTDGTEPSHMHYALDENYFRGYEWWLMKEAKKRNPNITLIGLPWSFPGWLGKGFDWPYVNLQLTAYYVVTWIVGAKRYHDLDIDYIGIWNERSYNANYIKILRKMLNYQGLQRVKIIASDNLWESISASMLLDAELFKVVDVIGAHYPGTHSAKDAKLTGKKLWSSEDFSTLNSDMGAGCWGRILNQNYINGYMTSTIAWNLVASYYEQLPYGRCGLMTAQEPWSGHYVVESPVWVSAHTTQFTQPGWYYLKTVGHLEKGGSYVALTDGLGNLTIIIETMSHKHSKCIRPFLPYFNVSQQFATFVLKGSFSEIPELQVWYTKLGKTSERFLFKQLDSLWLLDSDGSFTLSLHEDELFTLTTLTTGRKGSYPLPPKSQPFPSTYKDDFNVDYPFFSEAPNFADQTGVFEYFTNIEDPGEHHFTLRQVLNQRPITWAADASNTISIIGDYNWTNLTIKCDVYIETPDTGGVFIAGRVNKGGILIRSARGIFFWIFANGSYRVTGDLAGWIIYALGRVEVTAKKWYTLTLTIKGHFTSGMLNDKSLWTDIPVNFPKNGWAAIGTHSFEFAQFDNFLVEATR

activation, inactive:
COCCNC(=O)Cn1nc(-c2ccccc2)c2ccccc2c1=O -7.18%
COc1cc(OC)c(C2CC(=O)Nc3ccc4ccccc4c32)cc1OC (centres undefined) -12.8%
Cc1cccc(-c2noc(-c3cc(C(C)C)[nH]n3)n2)c1 -20.3%
CC(=O)N1c2ccccc2C(=O)C1N1CCN(c2cccc(Cl)c2)CC1 (centres undefined) -16.6%
Cc1cn(C)c(CC(=O)NCc2ccc(Cl)cc2)c1C(=O)O -11%
COc1cccc(Cn2c(=O)n(CC3CCC(C(=O)NC(C)C)CC3)c(=O)c3sccc32)c1 (centres undefined) -6.52%
Cc1ccc(C2=NN(CC(=O)NCCc3ccccc3)C(=O)CC2)cc1 -13.4%
Cc1cccc(OC(=O)CSc2nnc(-c3ccc4c(c3)OCO4)o2)c1C -5.62%
COc1cc(NC(=O)CN2C(=O)CCc3cc(Br)ccc32)cc(OC)c1OC -32.2%
Cc1ccc(CCNS(=O)(=O)c2ccc3c(c2)C(C(C)C)C(=O)N3)cc1 (centres undefined) -23.7%
CCOc1ccc(C2c3c(-c4cc(C)ccc4O)n[nH]c3C(=O)N2Cc2cccnc2)cc1OCC (centres undefined) -18.8%
CCNC(=O)[C@@H]1CCCN1C(=O)[C@H](CCCN=C(N)N)NC(=O)[C@H](CC(C)C)NC(=O)CNC(=O)[C@H](Cc1ccc(O)cc1)NC(=O)[C@H](CO)NC(=O)[C@H](Cc1c[nH]c2ccccc12)NC(=O)[C@H](Cc1cnc[nH]1)NC(=O)[C@@H]1CCC(=O)N1 ([pGlu]HWSYGLRP-NHEt) -8.64%
COc1ccccc1NC(=O)CC(C)n1nc(C)cc1C (centres undefined) -19.8%
CC(C)(C)C(=O)NCCc1nc2ccccc2n1CCCCOc1ccccc1 -13.9%
Cc1ccc(N(CC(=O)N2CCN(c3ccc(F)cc3)CC2)S(=O)(=O)c2c(C)noc2C)cc1 -0.21%
COc1ccc(-n2nc3c(N4CCC(C(=O)NCc5ccccc5C)CC4)nnc(C)c3c2C)cc1 -14.2%
CCOC(=O)N1CCC(NC(=O)c2c(C)nn(-c3cccc(C)c3)c2-n2cccc2)CC1 -14.3%
COc1ccc(OC)c(CCNC(=O)CCCn2c(=O)c3cccn3c3ccc(F)cc32)c1 -1.94%
COc1ccccc1Nc1ncc2c(n1)CCN(Cc1ccc(C)s1)C2 -17.4%
Cc1cc(F)ccc1NC(=O)CCS(=O)(=O)c1cc2c(cc1C)NC(=O)CO2 5.01%
CCOC(=O)c1ccc(NC(=O)CSc2nc3c(c(=O)[nH]2)CN(Cc2ccccc2)CC3)cc1 -9.09%
Cc1ccc2c(=O)c(C(=O)c3cccc(Cl)c3)cn(CC(=O)NC3CCCCC3)c2n1 3.12%
CCOc1ccccc1CNCCCSc1nnnn1C -6.74%
Cc1ccc(CSc2cn(CC(=O)N3CCCCCC3)c3ccccc23)cc1 -3.52%
COc1cccc(CNC(=O)Cn2ncc3c(=O)oc4ccccc4c32)c1 -5.6%
O=S(=O)(NCc1ccc(F)cc1)c1ccc(N2CCCCS2(=O)=O)cc1 -11.3%
CCCN(Cc1cc2cccc(C)c2[nH]c1=O)C(=O)c1cccc(Cl)c1 -17.9%
N#Cc1c(-c2ccccc2)cc(-c2ccccc2)nc1SCC(O)CS(=O)(=O)Cc1ccc(Cl)cc1 (centres undefined) -22.8%
O=C1CN(C(=O)c2ccc(S(=O)(=O)N3CCCC3)cc2)C(c2ccccc2)c2cc(F)ccc2N1 (centres undefined) -12.7%
Cc1cccc(C)c1NC(=O)Cn1nnc(S(=O)(=O)c2ccccc2)c1N -15.2%
Cc1ccccc1-c1noc(-c2ccccc2OCC(=O)Nc2cccc([N+](=O)[O-])c2)n1 -13.6%
CCOC(=O)c1cc2c(=O)n3ccccc3nc2n(C(C)C)c1=NC(=O)C(C)(C)Oc1ccc(Cl)cc1 -12.6%
Cc1c(C(=O)NCCN(C)C)oc2c1-c1nn(Cc3cccc(Cl)c3)cc1CC2 -15.2%
Cc1nc(-c2ccc(F)cc2)sc1CCNC(=O)Cc1ccc(F)cc1 2.16%
CN(C)c1ccc(Nc2ncnc3c2c(-c2ccccc2)cn3-c2cccc(Cl)c2)cc1 -3.26%
CCn1cc(/C=C(\NC(=O)c2cc(OC)c(OC)c(OC)c2)C(=O)NCCCn2ccnc2)c2ccccc21 -23%
Cc1cc(NC(=O)Cc2ccccc2)cc(-c2nc3ccccc3o2)c1O -21.2%
COc1ccc(CCC(=O)NC2CC(=O)N(c3ccc(F)cc3)C2)cc1 (centres undefined) -6.65%
COc1ccccc1N1CCN(C(=O)CN2C(=O)COc3ccc(S(=O)(=O)N4CCOCC4)cc32)CC1 -5.97%
CCN(CC)C(=O)c1c(-c2ccccc2)c(-c2ccccc2)nn(CC)c1=O -11%
COc1ccc(-c2nc3sc(CCNC(=O)c4ccc(Br)o4)c(C)n3n2)cc1 3.87%
CCN(Cc1nc(-c2ccc(OC)c(OC)c2)no1)S(=O)(=O)c1ccc(OC)cc1 0.971%
Cc1cccc(S(=O)(=O)c2cn(Cc3ccccc3)c3cc(N4CCCCC4)c(F)cc3c2=O)c1 -10%
COC(=O)c1ccccc1NS(=O)(=O)c1cc2c(cc1C)N(C)CCO2 -3.49%
CSc1ccccc1NC(=O)CCS(=O)(=O)c1nc(-c2ccc3c(c2)OCO3)cc(C(F)(F)F)n1 -19.4%
Cc1ccc(S(=O)(=O)C(CNS(=O)(=O)c2cc(F)ccc2F)c2cccs2)cc1 (centres undefined) -21.1%
COc1cc(CNC(=O)c2cnc(SC)nc2-c2ccccc2)cc(OC)c1OC -9.22%
CC(C)(C)OC(=O)N1CCC(c2c(C(=O)NC3CCCCC3)cnn2-c2ccc(F)cc2F)CC1 -12.2%
O=C(CSc1nc(=O)n(Cc2ccccn2)c2c1CCC2)Nc1ccccc1 -12.7%
Cc1noc(C)c1S(=O)(=O)N(CC(=O)Nc1ccc(F)cc1F)c1ccc(C(C)C)cc1 -19%
CCCNC(=O)c1ccc2c(c1)nc1n2CCCCC1 -16.1%
Cc1ccc(NC(=O)C2CCN(S(=O)(=O)c3cccc4nsnc34)CC2)cc1F 16.9%
COc1ccc(Cn2ccc3nc(C)c(C(=O)Nc4cccc(SC)c4)cc3c2=O)cc1 -12.2%
Oc1c(C(Nc2ccccn2)c2ccccc2F)ccc2cccnc12 (centres undefined) -11.1%
COc1cccc(CNC(=O)Cn2ncn3nc(-c4cccs4)cc3c2=O)c1 -7.5%
O=C(O)c1ccccc1C(=O)Nc1ccc(Br)c2cccnc12 -6.64%
CCN1CCN(c2oc(-c3ccc(COc4ccccc4C)o3)nc2C#N)CC1 -12.6%
CC(=O)c1ccc(NS(=O)(=O)c2ccc3c(c2)NC(=O)CCS3)cc1 -22.4%
COc1ccc(NC(=O)C(=O)NCCc2csc3nc(-c4ccccc4F)nn23)cc1OC -5.41%
CCCN(CCC)CCCNC(=O)c1cc2c(=O)n(C)c3ccccc3c2s1 -9.37%
COc1ccc(-c2c(C)c3ccc(O)c(CN4CCC(C)CC4)c3oc2=O)cc1OC -5.18%
CC(=O)Nc1ccccc1-c1nc2ccccc2n(C(C)C(=O)Nc2ccccc2C(F)(F)F)c1=O (centres undefined) -10.9%
COc1ccc(C(Nc2ccccn2)c2ccc3ccc(C)nc3c2O)cc1C (centres undefined) -3.72%
COc1cccc(CNC(=O)c2ccc(-c3nc(CSc4ccccc4)c(C)o3)cc2)c1 -2.62%
CCn1cc2nc(SCc3ccccc3Cl)n(Cc3ccc(OC)cc3)c(=O)c2n1 -38.8%
COc1cc2c(c(OC)c1)C(c1cccc(F)c1F)CC(=O)N2 (centres undefined) -12%
CN1CCN(c2ncnc3c2cnn3-c2cccc(Cl)c2)CC1 -9.45%
Cc1ccc(CNC(=O)c2cc(=O)c3cc(C)ccc3o2)cc1 -8.46%
COc1cc(OC)c(OC)cc1/C=C/c1nc2cc3ccccc3cc2c(=O)n1-c1ccccc1Br -9.3%
COc1ccccc1CNS(=O)(=O)c1ccc2[nH]c3c(c2c1)CCCCC3 -2.04%
CCC(Sc1nc2ccccc2c2nc(CCc3c(C)n[nH]c3C)nn12)C(=O)Nc1ccc(F)cc1 (centres undefined) -11.5%
CC1=C(c2ccc(C)cc2)S(=O)(=O)N(Cc2ccc(C(=O)NCc3cccc(C)c3)cc2)C1=O -3.67%
COc1cccc(-n2nnc3c(sc4nc(C)cc(C)c43)c2=O)c1 2%
Cc1c(Cl)cccc1NC(=O)N1CCC(CN2CCCC2)CC1 -6.91%
CSc1ccc(CNC(=O)CCn2ccc3cc(S(=O)(=O)N4CCC(C)CC4)ccc32)cc1 6.78%
COc1ccc(N2CCN(C(=O)c3cnc(N4CCCC4)nc3C)CC2)cc1 -11.8%
COc1ccc(-c2cc3nc(-c4ccccc4)cc(C(F)(F)F)n3n2)cc1 -3.67%
COc1ccc(CCNC(=O)Cc2c(C)c3c(cc(C)c4c(C)coc43)oc2=O)cc1 -11%
COc1ccc(CCNC(=O)CN(c2ccccc2OC)S(=O)(=O)c2ccc(C)cc2)cc1 -5.97%
COC(=O)c1c(NC(=O)c2cc(=O)c3ccc(C)c(C)c3o2)sc2c1CCCC2 -14.8%
O=C(Nc1sc2c(c1C(=O)Nc1ccccc1Cl)CCCC2)c1ccccc1F -7.14%
Cc1ccc(NC(=O)CSc2nc(C)c(Cc3ccccc3)c(=O)[nH]2)cc1 -33.6%
COC(=O)c1ccc(NC(=O)CSc2nc3ccc(OC)cc3[nH]2)cc1 -13.4%
COCCCNC(=O)Cn1c(=O)n(Cc2ccc(C(=O)NCc3ccc(C)cc3)cc2)c(=O)c2ccccc21 -8.26%
O=C(NCc1ccccc1Br)C1CCCN(C(=O)N2CCOc3ccccc32)C1 (centres undefined) -37%
COc1cc(OC)c(NC(=O)c2nnn(Cc3ccc(C)cc3)c2N)cc1Cl -14%
CCc1ccc(NC(=O)c2cc(S(=O)(=O)NC3CCCC3)ccc2F)cc1 -39%
Cc1ccc(NC(=O)c2c(NC(=O)c3ccco3)sc3c2CCC(C(C)(C)C)C3)c(C)c1 (centres undefined) 0.77%
COC(=O)c1cc(NC(=O)c2oc(=O)c3ccccc3c2-c2ccccc2)cc(C(=O)OC)c1 -13.7%
Cc1ccc(NC(=O)CN2C(=O)CSc3ccc(S(=O)(=O)N4CCCC4)cc32)cc1F -14%
Cc1cc(C)c2oc(-c3cccc(NC(=O)c4ccc(Br)o4)c3)nc2c1 -10.8%
Cc1ccccc1Cn1cc(CCC(=O)NC(C)c2ccccc2)c2ccccc21 (centres undefined) -8.86%
CCC(C)c1ccc(OCC(=O)Nc2cccc(-c3nc4ncccc4o3)c2)cc1 (centres undefined) -4.62%
CCOc1ccc(NC(=O)c2oc3ccccc3c2NC(=O)Cc2ccc(F)cc2)cc1 -6.19%
